From the supplement of paper PMC6657886

Assays:
Assay in all cases: Agar dilution on enriched GC agar; resistance determinants by microarray.
spectinomycin = compound: CN[C@@H]1[C@H](O)[C@H](NC)[C@H]2O[C@@]3(O)C(=O)C[C@@H](C)O[C@H]3O[C@@H]2[C@H]1O [spectinomycin]
ceftriaxone = compound: CO/N=C(\C(=O)N[C@@H]1C(=O)N2C(C(=O)O)=C(CSc3nc(=O)c(O)nn3C)CS[C@H]12)c1csc(N)n1 [ceftriaxone]
tetracycline = compound: CN(C)[C@@H]1C(O)=C(C(N)=O)C(=O)[C@@]2(O)C(O)=C3C(=O)c4c(O)cccc4[C@@](C)(O)[C@H]3C[C@@H]12 [tetracycline]
azithromycin = compound: CC[C@H]1OC(=O)[C@H](C)[C@@H](O[C@H]2C[C@@](C)(OC)[C@@H](O)[C@H](C)O2)[C@H](C)[C@@H](O[C@@H]2O[C@H](C)C[C@H](N(C)C)[C@H]2O)[C@](C)(O)C[C@@H](C)CN(C)[C@H](C)[C@@H](O)[C@]1(C)O [azithromycin]
benzylpenicillin = compound: CC1(C)S[C@@H]2[C@H](NC(=O)Cc3ccccc3)C(=O)N2[C@H]1C(=O)O [benzylpenicillin]

Test System	MIC (spectinomycin)	MIC (ceftriaxone)	MIC (tetracycline)	MIC (azithromycin)	MIC (benzylpenicillin)
Neisseria gonorrhoeae isolate 467 (blaTEM plasmid: no, gyrA: Phe91, Asp95, mtrR promoter: -35delA, parC: wild type, penA: ins345Asp, ponA: Pro421, porB: Asp120, Gly121, rpsJ: Met57, tetM plasmid: no)	16 µg/mL	0.004 µg/mL	1 µg/mL	0.25 µg/mL	0.5 µg/mL
Neisseria gonorrhoeae isolate 387 (blaTEM plasmid: no, gyrA: Phe91, Gly95, mtrR promoter: -35delA, parC: Arg87, Glu91, penA: ins345Asp, ponA: Pro421, porB: wild type, rpsJ: Met57, tetM plasmid: no)	32 µg/mL	0.008 µg/mL	4 µg/mL	0.03 µg/mL	0.25 µg/mL
Neisseria gonorrhoeae isolate 445 (blaTEM plasmid: no, gyrA: Phe91, Asn95, mtrR promoter: -35delA, parC: wild type, penA: ins345Asp, ponA: Pro421, porB: Asn120, Asp121, rpsJ: Met57, tetM plasmid: no)	32 µg/mL	0.03 µg/mL	0.5 µg/mL	0.25 µg/mL	2 µg/mL
Neisseria gonorrhoeae isolate 448 (blaTEM plasmid: no, gyrA: wild type, mtrR promoter: wild type, parC: Ser87, Gly 91, penA: wild type, ponA: wild type, porB: wild type, rpsJ: wild type, tetM plasmid: no)	16 µg/mL	0.008 µg/mL	0.25 µg/mL	0.06 µg/mL	0.06 µg/mL
Neisseria gonorrhoeae isolate 473 (blaTEM plasmid: yes, gyrA: Phe91, Asn 95, mtrR promoter: -35delA, parC: Arg87, Glu91, penA: ins345Asp, ponA: Pro421, porB: Asn120, Asp121, rpsJ: Met57, tetM plasmid: no)	8 µg/mL	0.03 µg/mL	1 µg/mL	0.12 µg/mL	≥ 32 µg/mL
Neisseria gonorrhoeae isolate 253 (blaTEM plasmid: no, gyrA: Phe91, Asn95, mtrR promoter: wild type, parC: Arg87, Glu91, penA: ins345Asp, ponA: Pro421, porB: wild type, rpsJ: Met57, tetM plasmid: no)	16 µg/mL	≤ 0.002 µg/mL	0.5 µg/mL	0.06 µg/mL	1 µg/mL
Neisseria gonorrhoeae isolate 175 (blaTEM plasmid: no, gyrA: Phe91, Gly95, mtrR promoter: -35delA, parC: Ser87, Gly 91, penA: ins345Asp, ponA: wild type, porB: Asn120, Asp121, rpsJ: Met57, tetM plasmid: no)	16 µg/mL	≤ 0.002 µg/mL	0.25 µg/mL	0.06 µg/mL	≤ 0.015 µg/mL
Neisseria gonorrhoeae isolate 63 (blaTEM plasmid: no, gyrA: wild type, mtrR promoter: wild type, parC: wild type, penA: wild type, ponA: wild type, porB: wild type, rpsJ: wild type, tetM plasmid: no)	16 µg/mL	≤ 0.002 µg/mL	1 µg/mL	0.12 µg/mL	0.12 µg/mL
Neisseria gonorrhoeae isolate 240 (blaTEM plasmid: no, gyrA: Phe91, Asn 95, mtrR promoter: wild type, parC: wild type, penA: ins345Asp, ponA: Pro421, porB: Asp120, Gly121, rpsJ: Met57, tetM plasmid: yes)	16 µg/mL	≤ 0.002 µg/mL	4 µg/mL	0.03 µg/mL	0.06 µg/mL
Neisseria gonorrhoeae isolate 299 (blaTEM plasmid: no, gyrA: Phe91, Asn95, mtrR promoter: -35delA, parC: Arg87, Glu91, penA: ins345Asp, ponA: Pro421, porB: wild type, rpsJ: Met57, tetM plasmid: no)	32 µg/mL	0.004 µg/mL	1 µg/mL	0.06 µg/mL	0.5 µg/mL
Neisseria gonorrhoeae isolate 198 (blaTEM plasmid: no, gyrA: wild type, mtrR promoter: wild type, parC: wild type, penA: wild type, ponA: wild type, porB: wild type, rpsJ: wild type, tetM plasmid: no)	16 µg/mL	≤ 0.002 µg/mL	0.12 µg/mL	0.12 µg/mL	≤ 0.015 µg/mL
Neisseria gonorrhoeae isolate 249 (blaTEM plasmid: no, gyrA: Phe91, Asn 95, mtrR promoter: wild type, parC: wild type, penA: ins345Asp, ponA: wild type, porB: Asp120, Gly121, rpsJ: Met57, tetM plasmid: yes)	16 µg/mL	≤ 0.002 µg/mL	16 µg/mL	0.12 µg/mL	0.5 µg/mL
Neisseria gonorrhoeae isolate 428 (blaTEM plasmid: no, gyrA: Thr91, Gly95, mtrR promoter: wild type, parC: wild type, penA: ins345Asp, ponA: wild type, porB: wild type, rpsJ: wild type, tetM plasmid: no)	32 µg/mL	≤ 0.002 µg/mL	0.5 µg/mL	0.03 µg/mL	0.12 µg/mL
Neisseria gonorrhoeae isolate 252 (blaTEM plasmid: no, gyrA: Phe91, Gly95, mtrR promoter: -35delA, parC: Ser87, Gly91, penA: ins345Asp, ponA: Pro421, porB: Asn120, Asp121, rpsJ: Met57, tetM plasmid: no)	16 µg/mL	0.015 µg/mL	2 µg/mL	0.12 µg/mL	0.5 µg/mL
Neisseria gonorrhoeae isolate 331 (blaTEM plasmid: no, gyrA: wild type, mtrR promoter: wild type, parC: wild type, penA: wild type, ponA: wild type, porB: wild type, rpsJ: wild type, tetM plasmid: no)	16 µg/mL	0.008 µg/mL	0.12 µg/mL	0.03 µg/mL	≤ 0.015 µg/mL
Neisseria gonorrhoeae isolate 434 (blaTEM plasmid: no, gyrA: Thr91, Gly95, mtrR promoter: wild type, parC: wild type, penA: wild type, ponA: wild type, porB: wild type, rpsJ: wild type, tetM plasmid: no)	32 µg/mL	0.004 µg/mL	0.12 µg/mL	0.25 µg/mL	0.25 µg/mL
Neisseria gonorrhoeae isolate 75 (blaTEM plasmid: no, gyrA: Phe91, Gly95, mtrR promoter: -35delA, parC: Arg87, Glu91, penA: ins345Asp, ponA: Pro421, porB: Asp120, Ala121, rpsJ: Met57, tetM plasmid: no)	32 µg/mL	0.03 µg/mL	2 µg/mL	0.06 µg/mL	1 µg/mL
Neisseria gonorrhoeae isolate 388 (blaTEM plasmid: no, gyrA: wild type, mtrR promoter: wild type, parC: wild type, penA: ins345Asp, ponA: wild type, porB: wild type, rpsJ: wild type, tetM plasmid: no)	4 µg/mL	≤ 0.002 µg/mL	0.06 µg/mL	0.03 µg/mL	0.03 µg/mL
Neisseria gonorrhoeae isolate 466 (blaTEM plasmid: no, gyrA: wild type, mtrR promoter: wild type, parC: wild type, penA: wild type, ponA: wild type, porB: wild type, rpsJ: wild type, tetM plasmid: no)	16 µg/mL	≤ 0.002 µg/mL	0.12 µg/mL	0.06 µg/mL	≤ 0.015 µg/mL
Neisseria gonorrhoeae isolate 107 (blaTEM plasmid: no, gyrA: wild type, mtrR promoter: wild type, parC: wild type, penA: wild type, ponA: wild type, porB: wild type, rpsJ: wild type, tetM plasmid: no)	16 µg/mL	≤ 0.002 µg/mL	0.25 µg/mL	0.06 µg/mL	0.06 µg/mL
Neisseria gonorrhoeae isolate 25 (blaTEM plasmid: no, gyrA: wild type, mtrR promoter: wild type, parC: wild type, penA: wild type, ponA: wild type, porB: wild type, rpsJ: wild type, tetM plasmid: no)	32 µg/mL	≤ 0.002 µg/mL	0.25 µg/mL	0.03 µg/mL	≤ 0.015 µg/mL
Neisseria gonorrhoeae isolate 205 (blaTEM plasmid: no, gyrA: Phe91, Gly95, mtrR promoter: wild type, parC: Arg87, Glu91, penA: ins345Asp, ponA: Pro421, porB: wild type, rpsJ: Met57, tetM plasmid: no)	8 µg/mL	≤ 0.002 µg/mL	0.25 µg/mL	0.03 µg/mL	0.03 µg/mL
Neisseria gonorrhoeae isolate 173 (blaTEM plasmid: no, gyrA: wild type, mtrR promoter: wild type, parC: wild type, penA: wild type, ponA: wild type, porB: wild type, rpsJ: wild type, tetM plasmid: no)	32 µg/mL	≤ 0.002 µg/mL	0.5 µg/mL	0.03 µg/mL	≤ 0.015 µg/mL
Neisseria gonorrhoeae isolate 181 (blaTEM plasmid: no, gyrA: Phe91, Asn 95, mtrR promoter: wild type, parC: Arg 87, Glu91, penA: ins345Asp, ponA: Pro421, porB: wild type, rpsJ: Met57, tetM plasmid: no)	32 µg/mL	0.004 µg/mL	1 µg/mL	0.06 µg/mL	0.25 µg/mL
Neisseria gonorrhoeae isolate 247 (blaTEM plasmid: no, gyrA: Phe91, Asn 95, mtrR promoter: -35delA, parC: Arg 87, Glu91, penA: wild type, ponA: Pro421, porB: Asn120, Asp121, rpsJ: Met57, tetM plasmid: no)	32 µg/mL	0.008 µg/mL	4 µg/mL	0.5 µg/mL	2 µg/mL

MIC of clinical N. gonorrhoeae isolates (2015-2017) by agar dilution on GC agar with 1% IsoVitaleX (ranges not stated); higher = less susceptible. No active / inactive call per row; the paper counts benzylpenicillin above 1 and ceftriaxone above 0.125 mg/L as resistant (EUCAST). The method is stated for benzylpenicillin and ceftriaxone and assumed for the other drugs. '<=' is inferred from pile-ups at the end values. Isolates are numbered anew.
